Over roughly 33,000 sequences, “E-score (-0.5 to 0.5)” has its median near -0.054; the highest 2% begin near 0.35. Some of the results follow.
Target: T1, Stb5 (UniProt P38699)
T1 sequence: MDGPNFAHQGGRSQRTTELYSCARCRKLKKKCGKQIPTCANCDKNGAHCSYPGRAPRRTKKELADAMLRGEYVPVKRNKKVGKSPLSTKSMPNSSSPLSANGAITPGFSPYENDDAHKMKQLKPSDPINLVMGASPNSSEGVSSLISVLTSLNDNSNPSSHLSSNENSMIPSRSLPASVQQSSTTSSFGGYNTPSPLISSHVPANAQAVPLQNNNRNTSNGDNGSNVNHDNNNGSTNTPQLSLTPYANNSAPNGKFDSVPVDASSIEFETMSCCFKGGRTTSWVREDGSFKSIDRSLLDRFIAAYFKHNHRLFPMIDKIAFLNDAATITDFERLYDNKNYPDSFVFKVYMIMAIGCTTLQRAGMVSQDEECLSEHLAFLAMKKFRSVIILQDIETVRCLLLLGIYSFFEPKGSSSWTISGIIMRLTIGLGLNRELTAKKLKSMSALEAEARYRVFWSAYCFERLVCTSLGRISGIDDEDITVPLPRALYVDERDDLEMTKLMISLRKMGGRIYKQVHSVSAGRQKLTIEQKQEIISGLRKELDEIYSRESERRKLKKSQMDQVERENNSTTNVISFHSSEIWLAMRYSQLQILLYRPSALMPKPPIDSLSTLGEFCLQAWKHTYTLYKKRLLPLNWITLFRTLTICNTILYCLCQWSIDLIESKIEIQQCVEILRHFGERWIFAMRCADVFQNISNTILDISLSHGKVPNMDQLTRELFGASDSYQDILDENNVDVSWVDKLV
Experiment: PBM E-score (8-mer binding enrichment) (E-score (-0.5 to 0.5)); higher = stronger / more preferred TF binding; most listed sequences are background and not binding sites
Settings: protein concentration: 200 nM; construct: GST-full length
In short: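 Bound GST-tagged yeast transcription factors, applied at about 100-200 nM to double-stranded universal all-10-mer Agilent arrays, were detected with fluorescent anti-GST. Scans were normalised with masliner. A modified Wilcoxon-Mann-Whitney statistic, the E-score, was assigned to each ungapped eight-base word pooled with its reverse complement by the Universal PBM Analysis Suite.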

Point of comparison: GGATGGTA, “PBM E-score” value -0.118. Against it:
- ACGATAAG — higher, -0.0682
- AATTCTAC — lower, -0.289
- GCTTGCAA — higher, -0.0391
- TAATCTCA — lower, -0.151
- ACGGGCTA — higher, 0.146
- CTTCTGAA — higher, -0.0858
- CCGCGACG — higher, 0.303
- ACATGGCG — higher, 0.0157
- AAGTTAAA — lower, -0.143
- ATAGGTAG — lower, -0.258
- ACTAAAAC — higher, 0.129
- TACGAAAA — lower, -0.253
- AGCTGTCC — lower, -0.237
- GGGTGTCA — higher, -0.073
- TACGCCTA — lower, -0.211
- AGAGTTTG — higher, -0.0532
- CGTCACCA — higher, -0.0795
- AAACCTGC — lower, -0.198
- CCCCGACC — higher, 0.355
- AATAATGC — higher, 0.108
- CGGCAACA — higher, 0.332
- TAGAGCGA — higher, -0.0549
- CGGAGCAA — higher, 0.316
- CGGATCTA — higher, 0.424
- CTCTTACA — lower, -0.239
- ATGTAAAC — higher, 0.171
- ACTCCCGC — higher, 0.253
- ACACGCCA — lower, -0.155
- GTTCGCCA — lower, -0.209
- AAAGGACT — higher, -0.0879
- GCCCGCAA — higher, 0.152
- CATCAAAA — lower, -0.153
- AAACTAAG — higher, -0.114
- ACAGATAT — lower, -0.123
- ACGTTTCG — higher, -0.0366
- ATCATCAT — lower, -0.158
- GAATAGGA — lower, -0.132
- CCCCTCCC — higher, 0.0118
- TAAAAGTA — higher, 0.0185
- AATCAAGA — higher, 0.0435
- ATGGCCCA — lower, -0.167
- GATTTCAA — higher, 0.034
- TGATAAAA — higher, 0.0867
- ATGATTAG — higher, -0.0345
- ATAGGACG — higher, -0.0892
- AGCCACCT — lower, -0.316
- GGCTACCA — lower, -0.267
- CGTTACGA — higher, 0.0335
- GCCGTGAC — higher, 0.142
- GCATGCGA — higher, 0.0292
- GGTTCTGA — higher, -0.0576
- ATCGACTC — lower, -0.204
- AGTCATCA — lower, -0.186
- AGCCCAAC — lower, -0.183
- CGTCGCAG — higher, 0.0811
- ACGTAACC — higher, -0.0823
- GGACATTA — higher, 0.338
- CAATGATG — lower, -0.192
- CCCGGTGA — higher, 0.261
- ACTGACCG — higher, 0.115
- CATCTTGA — higher, -0.0443
- GGAGATAC — higher, 0.32
- CTTCCCGA — higher, 0.0298
- CGTGACAA — higher, -0.0215
- GGGACGAA — higher, 0.107
- CAGGGCGA — higher, -0.0756
- ATCTTGAG — lower, -0.162
- AACGCATT — higher, -0.0528
- AGTGTGCC — higher, -0.0438
- CGGGGGTA — higher, 0.451
- CCCGAAAA — higher, 0.248
- AGGCTAAT — higher, -0.0423
- CACGCTTA — lower, -0.149
- AATGCTGT — higher, -0.0756
- GCCTGCCA — lower, -0.271
- CATGTACC — higher, -0.0343
- ACTGTAAA — higher, -0.106
- AAACCAAA — higher, -0.0629
- ATGGGTAG — lower, -0.221
- CATAAGAC — higher, 0.131
- TGACCGAA — higher, 0.0381
- ACCCGGAG — higher, 0.246
- GCCGACAC — higher, 0.239
- GAGGATTA — lower, -0.122
- CTTCGATA — higher, 0.0184
- GAACTTGC — lower, -0.124
- GGCAGTAA — higher, 0.256
- GCAGCACA — lower, -0.17
- CTATCGAG — lower, -0.186
- CCGTACTC — higher, 0.0597
- GGTCACCA — lower, -0.378
- GCCGCCTA — higher, 0.139
- AGTTATCG — higher, 0.195
- CGTGGGGC — higher, 0.0662
- AAGCTAAT — higher, -0.016
- ACCAACAT — higher, -0.0205
- CTGTGTAC — higher, -0.00391
- CCAGCGAA — lower, -0.194
- CAGGTGAA — lower, -0.236
- CAGATCCA — higher, -0.0305
- CCAAAACC — higher, -0.0249
- GTCAACAA — lower, -0.169
- AGCCAGCC — lower, -0.347
- AAATAGTA — higher, 0.00695
- ACTGTCTG — lower, -0.128
- ATCCGCGA — higher, 0.168
- AAGGTATA — higher, -0.0982
- ACCAATGG — higher, -0.0752
- TAAGCGCA — lower, -0.215
- CACCCACC — higher, 0.044
- CCCCAGAA — higher, -0.111
- CCCAGAGC — lower, -0.176
- GGCATACA — higher, -0.0504
- ACAGTCAC — lower, -0.224
- TAAGTTGA — lower, -0.124
- ACTTCCCT — lower, -0.2
- CAGGCGTA — higher, -0.0661
- GAGTGCCC — lower, -0.146
- GGTTCACA — lower, -0.138
- GGCGATGA — higher, 0.0312
- CGGCCAGC — higher, 0.0393
- AGCCCGAG — higher, 0.05
- AGAGCTCT — higher, -0.0693
- ACCAGCAC — lower, -0.2
- CCAAGCCG — higher, -0.056
- CGAACTTA — higher, 0.084
- CGACGTGC — higher, 0.106
- ATCGTCTA — lower, -0.235
- AAGGAGTA — lower, -0.147
- CCTCGAAA — lower, -0.126
- AATTGTCG — higher, 0.0562
- TATGGCCA — lower, -0.203
- AGTCGACA — lower, -0.336
- CTTAACTC — higher, 0.0834
- CATGTAGC — higher, -0.0248
- AAGCGTGC — lower, -0.171
- TCTTTGCA — higher, -0.0517
- ATGACCCG — higher, -0.0494
- GCATACGA — lower, -0.191
- CCGCAGAA — higher, 0.241
- CGTTTTCC — higher, -0.096
- CTCAGGTC — higher, 0.0107
- CATGACCC — higher, -0.00641
- CTCAACCC — higher, -0.0727
- GCCACCAC — lower, -0.185
- CACTTGCC — higher, -0.0434
- ATTTATGG — higher, -0.0167
- GGAACAGA — higher, -0.104
- CTGCCTAA — lower, -0.258
- CGTAGCAG — higher, 0.0285
- GGACTTCA — higher, 0.225
- ACTTGGCA — lower, -0.12
- AGCCTATG — lower, -0.163
- GTTCTCAA — higher, 0.0107
- CGACGCAC — higher, 0.187
- GATGGACC — higher, -0.0251
- ACTTCGCG — higher, -0.00615
- ACTACAAG — higher, -0.0704
- AATACTCG — higher, -0.102
- CGTCTGTC — higher, -0.0153
- CTACAAGA — higher, -0.116
- CGCTTTCA — higher, 0.00451
- GACATGAA — higher, -0.114
- CGCGCACG — higher, 0.118
- CTCTAACC — higher, -0.098
- CAGCTCCG — higher, 0.136
- CTTCTAAC — higher, 0.0168
- AACTATAA — higher, 0.164
- TAAGCCTA — lower, -0.155
- ACTCCCAC — higher, -0.0914
- GATGGCCA — lower, -0.25

From the supplement of paper PMC3334620
